Our source for the survival values is PubChem BioAssay AID463173 (ICCB-Longwood Screening Facility, Harvard Medical School, 2010).

Screen size: about 52,000 compounds; about 4,300 (8.3%) were called active. Cut-off read from the data, not from the text of the source: active = survival mostly below about 52% (no sharp cut-off); inactive = mostly above about 56%. This is one part of the list.

The assay relates to DeltatarO mutant. Nature of the assay: S. aureus survival, RN4220 and DeltatarO strains – OD600, teichoic acid synthesis inhibitors, primary screen (AID 463173). The conditions noted are these: S. aureus RN4220 wild type/DeltatarO growth, OD600, 18 h, active compounds read low, screened at 18.75 µg/mL (by protocol).
On to `COc1ccc(Cn2ccnc2SCC(=O)Nc2nc3ccccc3s2)cc1`, for which the survival is inactive: 84%.
The figure for `COc1cc2ncc3c(-c4ccc(C)cc4)nn(-c4ccc(F)cc4F)c3c2cc1OC` is inactive: 86%; for `CN(C)CCCNc1cc(N2CCN(C3CCCCC3)CC2)c2noc3c2c1C(=O)c1ccccc1-3` it is inactive: 51%; for `Cc1ccc(NC(=O)CN2C(=O)c3cccnc3Oc3ccc(Cl)cc32)cc1` it is inactive: 90%.
Then `Cc1ccc(S(=O)(=O)c2nnn3c2nc(NCc2ccc4c(c2)OCO4)c2sccc23)cc1C`, with inactive: 54%.
Consider `CCc1ccc(NC(=O)CN2C(=O)c3cccc4cccc2c34)cc1`, for which the survival was inactive: 78%.
`CC1CCc2c(sc(N)c2C(N)=O)C1` (configuration not stated): the survival was inactive: 75%.
As for `Cc1ccc(C)c(N2CCN(S(=O)(=O)c3cc(C(=O)Nc4ccc(Oc5ccccc5)cc4)ccc3F)CC2)c1`, the survival is inactive: 117%.
For the molecule `COc1ccc(Br)cc1CNC(=O)c1cnc2sc(N3CCC(C)CC3)nn2c1=O`, the survival is inactive: 78%.
Then `COc1cc(Cl)c(NC(=O)c2cc3ccccn3n2)c(OC)c1`, with inactive: 84%; and `Cc1cccc(NC(=O)C2CCCN2S(=O)(=O)c2ccc3nc(-c4ccccc4)[nH]c3c2)c1` (configuration not stated), with active: 37%; and `Cc1nc2ccccn2c(=O)c1NC(=O)c1ccc(F)c(F)c1`, with inactive: 99%.
Regarding `COc1ccc(C2(CC(=O)O)CCOC(C)(C)C2)cc1` (configuration not stated), the survival was inactive: 97%.
Regarding `Cc1ccc2c(c1)c1c(c(=O)n(-c3ccccc3)c(=O)n1CC(=O)NCC1CCCO1)n2C` (configuration not stated), the survival was inactive: 90%.
For `CCOc1cc(C(=O)Nc2ccc(-c3cn4cccnc4n3)cc2)cc(OCC)c1OCC`, the survival is inactive: 60%.
For the molecule `CCNC(=O)C1CCN(S(=O)(=O)c2ccc3c(c2)CCCN3C(C)=O)CC1`, the survival is inactive: 99%.
The figure for `CCCN(CCC)c1ccc(C2N=C(N)Nc3nc4ccccc4n32)cc1` (configuration not stated) is inactive: 59%.
Then `Cn1c(=O)oc2cc(S(=O)(=O)CCC(=O)N3CCN(c4cccc(Cl)c4)CC3)ccc21`, with inactive: 81%; and `O=C(NCc1ccccc1)c1ccc(NC(=O)N2CC3CCCN3c3ccccc32)cc1` (configuration not stated), with inactive: 63%; and `Cc1ccc(S(=O)(=O)NC(Cc2ccccc2)C(=O)NN)cc1` (configuration not stated), with inactive: 99%.
As to `O=C(Nc1ccc(N2CCCCC2)cc1)c1ccc2c(c1)OCO2`, the survival was inactive: 85%.
Turning to `CCCOC(=O)c1cccc(NC(=O)CSc2nnc3cc(C)c4ccccc4n23)c1`, the survival is inactive: 100%.
Consider `CC(=O)c1ccc(NC(=O)c2nc(-c3ccccc3)n(-c3ccc(C)cc3)n2)cc1`, for which the survival was inactive: 60%.
Take `O=C(NCc1cccc(Cl)c1)C1CCCN(c2nn3cc(-c4ccc(F)cc4)nc3s2)C1` (configuration not stated): the survival was inactive: 87%.
The figure for `Clc1ccc2nc(-c3ccc(N4CCOCC4)cc3)c(Nc3ccccc3)n2c1` is inactive: 67%; for `COc1ccccc1NC(=O)Cn1c(=O)oc2cc(S(=O)(=O)NCc3ccccc3)ccc21` it is inactive: 74%; for `Cc1ccc(CNS(=O)(=O)c2c(C)nc3sc(C)cn3c2=O)cc1` it is inactive: 115%.
Then `Cc1ccc(Cl)cc1NC(=O)CN1C(=O)c2ccccc2Sc2ncccc21`, with inactive: 95%.
The figure for `CCc1ccc(-c2nc(CS(=O)CC(=O)NCc3ccc(F)cc3)c(C)o2)cc1` (configuration not stated) is inactive: 100%.
In the case of `COCCNC(=S)N1CCC(c2nc(-c3ccc(N(C)C)cc3)no2)CC1`, the survival was inactive: 88%.
Consider `COc1ccc(CCNC(=O)c2ccc3c(c2)nc2n3CCCCC2)cc1OC`, for which the survival is inactive: 75%.
Then `Cc1cccc(N2CCN(Cc3nnc(-c4cccc(Br)c4)o3)CC2)c1C`, with inactive: 72%; and `CCOC(=O)c1cc(C)n(CC2CCC(C(=O)Nc3cccc(C(C)=O)c3)CC2)c1C` (configuration not stated), with inactive: 92%.
Then `CCOc1ccccc1CNCc1c(C(=O)O)n(Cc2ccccc2)c2cc(OC)ccc12`, with inactive: 79%.
Regarding `CCOc1ccccc1C1C(C(=O)Nc2ccccc2)=C(C)Nc2nc(-c3ccccc3)nn21` (configuration not stated), the survival is inactive: 75%.
The figure for `CCCCn1c(SCC(=O)c2ccccc2)nc2sc3c(c2c1=O)CCCC3` is active: 44%; for `CC(C)NC(=O)CSc1cn(CC(=O)N2CCCCCC2)c2ccccc12` it is inactive: 83%; for `Cc1ccc(-c2nnc3c4ccccc4c(-c4ccccc4)nn23)cc1` it is inactive: 134%.
Consider `CCOc1ccccc1NCc1nnc2n1CCCCC2`, for which the survival is inactive: 95%.
Then `Cc1ccc(NCc2cc3cc4c(cc3n(CC(=O)Nc3ccc(C)cc3)c2=O)OCCO4)cc1`, with active: 32%; and `COc1ccc(N2CCN(C(=O)c3cnc(N4CCOCC4)c4ccccc34)CC2)cc1`, with inactive: 90%; and `CCc1ccccc1N(C)C(=O)c1nn(-c2ccc(OC)cc2)c(=O)c2c1c1ccccc1n2C`, with inactive: 82%.
Turning to `Cc1cccc(NC(=O)c2ccc3oc(=O)c(S(=O)(=O)c4ccc(F)cc4)cc3c2)c1C`, the survival is inactive: 122%.
Take `CCOc1ccc(CNc2cc(C)nc3nc(-c4cccc(C)c4)nn23)cc1OC`: the survival is inactive: 95%.
Then `CCOC(=O)c1cnc2ccc(OCC)cc2c1NCCN(C)C`, with inactive: 95%; and `CCOc1ccc(S(=O)(=O)c2cc3cccc(OCC)c3oc2=O)cc1`, with inactive: 100%; and `CC1CCc2c(sc3nnn(Cc4ccccc4Cl)c(=O)c23)C1` (configuration not stated), with active: 13%.
Regarding `CCCCN(CC)C(=O)c1ccc2c(c1)NC(=O)c1ccccc1S2`, the survival was inactive: 104%.
The figure for `CCc1cccc(NC(=O)c2cc3c(=O)oc4ccc(C)cc4c3s2)c1` is inactive: 116%; for `COc1ccc(CNC(=O)C(CC(C)C)NS(=O)(=O)c2ccc3c(c2)oc(=O)n3C)cc1` (configuration not stated) it is inactive: 80%; for `CCCNS(=O)(=O)c1ccc(OCC(=O)NCc2ccco2)cc1` it is inactive: 95%.
Then `Cc1ccc(S(=O)(=O)c2cn(Cc3ccccc3)c3cc(N4CCCC4)c(F)cc3c2=O)c(C)c1`, with inactive: 94%.
Then `CSc1nnc(NC(=O)c2cc(=O)c3cc(C)c(C)cc3o2)s1`, with inactive: 52%; and `CCOc1c(CNCCSc2nnnn2C)cccc1OC`, with inactive: 66%.
In the case of `COc1cc(S(=O)(=O)Nc2ccccc2NC(=O)CN2CCOCC2)c(OC)cc1NC(C)=O`, the survival is inactive: 81%.
The figure for `CC(C)(C)n1nnnc1C(c1cccc(C(F)(F)F)c1)N1CCC(O)CC1` (configuration not stated) is inactive: 92%; for `Cc1cccc(C)c1NC(=O)C(=O)NCC(c1ccc2c(c1)OCO2)N1CCN(C)CC1` (configuration not stated) it is inactive: 88%.
